Source: patent publication US20220411536A1 (NUMAB THERAPEUTICS, published 2022)
One block for each binder: values may come before it.

Legend:
[1] = molecular target: T1, human PD-L1 expressed on cells (CHO-PD-L1, HCC1954, HCC827) (human); assay: flow cytometry, inhibition of biotinylated PD-1 binding to HCC1954 cells
T1 construct: whole, on cells; also called hPD-L1; PD-L1 expressing cells

[2] = molecular target: T1, human PD-L1 expressed on cells …; assay: flow cytometry, inhibition of biotinylated PD-1 binding to HCC827 cells
[3] = molecular target: CD3e on Jurkat PD-1 NFAT reporter T cells or on T cells of human PBMCs (human); assay: cell-based or functional assay
[4] = molecular target: T2, recombinant human IL-23R (custom-made by Trenzyme) (human); assay: SPR, immobilised IL-23R
T2 sequence (looked up): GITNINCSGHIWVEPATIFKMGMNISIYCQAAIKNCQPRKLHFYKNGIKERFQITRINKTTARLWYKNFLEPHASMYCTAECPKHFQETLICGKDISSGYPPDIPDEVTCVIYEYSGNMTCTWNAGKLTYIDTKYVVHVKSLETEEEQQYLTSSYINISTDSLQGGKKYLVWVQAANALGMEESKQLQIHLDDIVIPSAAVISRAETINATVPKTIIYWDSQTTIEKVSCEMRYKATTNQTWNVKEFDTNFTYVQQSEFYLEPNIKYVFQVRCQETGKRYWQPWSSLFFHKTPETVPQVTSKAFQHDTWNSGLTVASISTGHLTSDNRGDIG

[5] = molecular target: T3, recombinant human CD3E ECD (SinoBiological, cat. 10977-H08H) (human); assay: SPR, immobilised CD3e ECD, two-state model (ka1)
T3 construct: extracellular domain; bought protein; also called CD3s

[6] = molecular target: T3, recombinant human CD3E ECD …; assay: SPR, immobilised CD3e ECD, two-state model
[7] = molecular target: T3, recombinant human CD3E ECD …; assay: SPR, immobilised CD3e ECD, two-state model (kd1)

IC50 [1]: 0.205 µg/mL
IC50 [2]: 1.24 µg/mL
IC50, NFAT reporter, HCC1954 cells [3]: 0.148 nM
B1: PRO1454 (multispecific antibody)
chain 1: [not shown - about 200 residues]GGGGSGGGGSDIQMTQSPSSLSASVGDRVTITCQSSQSVFSNNYLAWFQQKPGQSPKRLIYSASTLASGVPSRFSGSGSGTDFTLTISSLQPEDFATYYCLGSYACSSADCYVFGTGTKVTVLGGGGGSGGGGSGGGGSGGGGSEVQLVESGGGLVQPGGSLRLSCAASGFSLSSYDMSWVRQAPGKGLAWIGASYASGPTYYASWAKGRFTISRDNSKNTVYLQMNSLRAEDTATYFCARGGWTGTSHSNIWGQGTLVTVSS
chain 2: [not shown - about 120 residues]ASTKGPSVFPLAPSSKSTSGGTAALGCLVKDYFPEPVTVSWNSGALTSGVHTFPAVLQSSGLYSLSSVVTVPSSSLGTQTYICNVNHKPSNTKVDKKVEPKSCGGGGSGGGGSDIQMTQSPSSLSASVGDRVTITCQASQSINDYLAWYQQKPGKAPKLLIYKASTLASGVPSRFSGSGSGTDFTLTISSLQPEDFATYYCQQAYIITDIDNVFGTGTKVTVLGGGGGSGGGGSGGGGSGGGGSQVQLQESGPGLVKPSETLSLTCKVSGFSFSSGYDMCWIRQPPGKGLEWIGCVVAGSVDITYYASWAKGRVTISVDSSKNQFSLKLSSVTAADTAVYYCARKDAYSDAFNLWGQGTLVTVSS

IC50, NFAT reporter, HCC1954 cells [3]: 0.291 nM
rel. max. activation vs PRO1497, NFAT reporter, HCC1954 cells [3]: 75%
B2: PRO1456 (multispecific antibody)
chain 1: [not shown - about 200 residues]GGGGSGGGGSDIQMTQSPSSLSASVGDRVTITCQSSQSVFSNNYLAWFQQKPGQSPKRLIYSASTLASGVPSRFSGSGSGTDFTLTISSLQPEDFATYYCLGSYACSSADCYVFGTGTKVTVLGGGGGSGGGGSGGGGSGGGGSEVQLVESGGGLVQPGGSLRLSCAASGFSLSSYDMSWVRQAPGKGLAWIGASYASGPTYYASWAKGRFTISRDNSKNTVYLQMNSLRAEDTATYFCARGGWTGTSHSNIWGQGTLVTVSS
chain 2: [not shown - about 120 residues]ASTKGPSVFPLAPSSKSTSGGTAALGCLVKDYFPEPVTVSWNSGALTSGVHTFPAVLQSSGLYSLSSVVTVPSSSLGTQTYICNVNHKPSNTKVDKKVEPKSCGGGGSGGGGSDIQMTQSPSSLSASVGDRVTITCQASENIYSFLAWYQQKPGKAPKLLIYSASKLAAGVPSRFSGSGSGTDFTLTISSLQPEDFATYYCQQTNRYSNPDIYNVFGTGTKVTVLGGGGGSGGGGSGGGGSGGGGSEVQLVESGGGLVQPGGSLRLSCAASGIDFNSNYYMCWVRQAPGKGLEWIGCIYVGSHVNTYYANWAKGRFTISRDNSKNTVYLQMNSLRAEDTAVYYCATSGSSVLYFKFWGQGTLVTVSS

kon [5]: 231000 M⁻¹ s⁻¹
IC50 [1]: 0.352 µg/mL
KD1 [6]: 25.7 nM
Kd [6]: 20.6 nM
kd2 [6]: 0.00286 s⁻¹
koff [7]: 0.00594 s⁻¹
IC50, NFAT reporter, HCC1954 cells [3]: 0.361 nM
rel. max. activation vs PRO1497, NFAT reporter, HCC1954 cells [3]: 100%
B3: PRO1497 (multispecific antibody)
chain 1: [not shown - about 200 residues]GGGGSGGGGSDIQMTQSPSSLSASVGDRVTITCQSSQSVFSNNYLAWFQQKPGQSPKRLIYSASTLASGVPSRFSGSGSGTDFTLTISSLQPEDFATYYCLGSYACSSADCYVFGTGTKVTVLGGGGGSGGGGSGGGGSGGGGSEVQLVESGGGLVQPGGSLRLSCAASGFSLSSYDMSWVRQAPGKGLAWIGASYASGPTYYASWAKGRFTISRDNSKNTVYLQMNSLRAEDTATYFCARGGWTGTSHSNIWGQGTLVTVSS
chain 2: [not shown - about 120 residues]ASTKGPSVFPLAPSSKSTSGGTAALGCLVKDYFPEPVTVSWNSGALTSGVHTFPAVLQSSGLYSLSSVVTVPSSSLGTQTYICNVNHKPSNTKVDKKVEPKSCGGGGSGGGGSDIQMTQSPSSLSASVGDRVTITCQASQSINDYLAWYQQKPGKAPKLLIYKASTLASGVPSRFSGSGSGTDFTLTISSLQPEDFATYYCQAAYIITDIDNVFGTGTKVTVLGGGGGSGGGGSGGGGSGGGGSQVQLQESGPGLVKPSETLSLTCKVSGFSFSSGYDMCWIRQPPGKGLEWIGCVVAGSVDITYYASWAKGRVTISVDSSKNQFSLKLSSVTAADTAVYYCARKDAYSDAFNLWGQGTLVTVSS
binding result [4]: no binding (tested: 90 nM highest concentration)
